Laboratory results from PMC4336329 (PLoS ONE, 2015).
The campaign covered roughly 310,000 compounds. About 2,200 (0.71%) showed an effect of 50% or more. The effect is printed as a negative number. This is one part of the list.

biological target: human ether-à-go-go-related gene (hERG) potassium channel (human, UniProt Q12809); test: primary screen, population patch clamp on CHO cells stably expressing hERG
Sequence (Q12809 whole entry, looked up): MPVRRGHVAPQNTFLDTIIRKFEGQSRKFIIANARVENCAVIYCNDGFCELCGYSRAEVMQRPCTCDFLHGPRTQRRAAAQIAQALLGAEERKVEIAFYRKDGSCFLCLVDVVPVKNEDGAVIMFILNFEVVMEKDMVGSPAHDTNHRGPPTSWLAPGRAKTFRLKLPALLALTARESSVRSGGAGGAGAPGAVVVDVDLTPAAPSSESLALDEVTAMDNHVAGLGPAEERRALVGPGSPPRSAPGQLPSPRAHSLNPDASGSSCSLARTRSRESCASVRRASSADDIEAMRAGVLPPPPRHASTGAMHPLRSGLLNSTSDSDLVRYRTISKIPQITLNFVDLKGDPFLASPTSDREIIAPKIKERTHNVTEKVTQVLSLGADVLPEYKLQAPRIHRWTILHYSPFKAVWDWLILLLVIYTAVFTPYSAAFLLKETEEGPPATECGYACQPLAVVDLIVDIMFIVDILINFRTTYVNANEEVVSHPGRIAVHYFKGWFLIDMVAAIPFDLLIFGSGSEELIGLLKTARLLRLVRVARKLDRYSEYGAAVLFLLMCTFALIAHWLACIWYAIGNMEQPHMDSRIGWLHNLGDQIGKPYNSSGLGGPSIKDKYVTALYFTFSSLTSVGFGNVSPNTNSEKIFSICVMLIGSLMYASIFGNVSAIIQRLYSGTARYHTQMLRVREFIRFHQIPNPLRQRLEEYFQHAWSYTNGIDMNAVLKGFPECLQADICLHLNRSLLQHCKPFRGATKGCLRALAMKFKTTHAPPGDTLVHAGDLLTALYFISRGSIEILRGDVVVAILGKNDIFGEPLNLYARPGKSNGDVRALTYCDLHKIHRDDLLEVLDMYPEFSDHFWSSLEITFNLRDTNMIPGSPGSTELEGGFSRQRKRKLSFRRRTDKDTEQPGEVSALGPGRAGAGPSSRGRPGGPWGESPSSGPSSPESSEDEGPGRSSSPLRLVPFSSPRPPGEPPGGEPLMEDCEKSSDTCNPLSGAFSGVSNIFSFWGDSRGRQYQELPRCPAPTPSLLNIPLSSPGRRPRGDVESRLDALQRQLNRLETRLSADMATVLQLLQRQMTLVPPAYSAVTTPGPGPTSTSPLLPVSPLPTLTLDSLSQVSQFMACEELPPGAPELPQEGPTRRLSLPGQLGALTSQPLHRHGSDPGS

| SMILES | hERG current change (%, negative = inhibition) at 1uM [%] |
| --- | --- |
| O=c1[nH]c(=O)n(-c2cccc(Cl)c2)c(O)c1/C=N/c1ccccn1 | 16.8 |
| C#CCSc1nc2sc3c(c2c(=O)n1C)CCC3 | 3.53 |
| CCSc1nnc(NC(NC(C)=O)(C(F)(F)F)C(F)(F)F)s1 | 23.6 |
| C(=N\Nc1nc2ccccc2s1)/c1ccccn1 | 8.31 |
| Cc1ccc(CNC(=O)C2CCCN(c3nc(C)cc(C)n3)C2)cc1 (stereo not drawn) | 10.7 |
| CCC(=O)Nc1nnc(S(=O)(=O)N2c3ccccc3CC2C)s1 (stereo not drawn) | 10.6 |
| Cc1ccc2cc(CCNS(=O)(=O)c3ccc(Cl)cc3)c(=O)[nH]c2c1C | 13.8 |
| Cc1ccc(N2CCN(C3=NC(=O)C(Cc4ccccc4)S3)CC2)cc1 (stereo not drawn) | -1.41 |
| CC1CCN(C(=O)c2[nH]cnc2C(=O)NCC(=O)OCc2ccccc2)CC1 | -2.81 |
| COc1cc(C2SCC(=O)N2c2c(C)n(C)n(-c3ccccc3)c2=O)ccc1O (stereo not drawn) | -2.21 |
| O=C(NCc1ccccn1)C1CCC(CNS(=O)(=O)c2cccc3nsnc23)CC1 (stereo not drawn) | 1.37 |
| Cc1ccc2nc(-c3ccc(NC(=O)C4CCCO4)cc3)[nH]c2c1 (stereo not drawn) | -9.2 |
| Cc1cccc2c(=O)n3c(nc12)CCCCC3 | 10.5 |
| CC(C)CN(CCCNC(=O)CN1C(=O)COc2ccc(S(=O)(=O)N3CCCCCC3)cc21)CC(C)C | -4.22 |
| Cn1c(=O)[nH]c(=O)c2c1nc(Br)n2CC(O)COc1ccc(Cl)cc1 (stereo not drawn) | -23.7 |
| COc1ccc(C)cc1NC(=O)NCCCCc1ccccc1 | 0.664 |
| O=C1C(Cl)=C(NC2CCCCC2)C(=O)N1Cc1ccccc1 | 16.5 |
| CCn1c(=NC(=O)CSC(C)=O)sc2ccccc21 | 5.86 |
| COc1ccc(C(=O)NCCCCCC(=O)N/N=C/c2ccco2)cc1OC | 19.8 |
| CCOC(=O)C1C(c2cccs2)NC(=O)NC1(O)C(F)(F)F (stereo not drawn) | 12.7 |
| O=C(c1ccc(Cl)cc1)N1CCN(c2ccc(F)cc2)CC1 | -9.05 |
| O=C(c1cccc(S(=O)(=O)N2CCN(c3ccc(F)cc3)CC2)c1)N1CCCC(C(F)(F)F)C1 (stereo not drawn) | -5.54 |
| C=C1CC(C(=O)N/N=C/c2ccc(O)cc2)C1 | 7.31 |

| SMILES | hERG current change (%, negative = inhibition) at 1uM [%] |
| --- | --- |
| O=C(C1CC(c2ccccc2O)=NO1)N1CCCC1 (stereo not drawn) | 7.04 |
| O=C(NCc1ccccc1)C1CCCN(c2nc3ccsc3c(=O)s2)C1 (stereo not drawn) | 13 |
| COc1cccc(S(=O)(=O)NCc2ccc(C(=O)N3CCN(c4ccccc4OC)CC3)cc2)c1 | 11.6 |
| CCCOCC1CC2(CC(C)(c3csc(N)n3)OC2=O)C(=O)O1 (stereo not drawn) | 5.25 |
| O=C(NC1CCCCC1)C(c1ccc(F)cc1)N(Cc1ccco1)C(=O)Cn1nnc2ccccc21 (stereo not drawn) | 7.39 |
| CC(=O)Nc1ccc2c(c1)ncn2C | 21.1 |
| Cc1ccc(-n2ncc3c(=O)n(-c4ccc(C)c(C)c4)c(C)nc32)cc1 | 14.8 |
| COc1cc(CN2CCCC(CO)(Cc3ccccc3F)C2)ccc1O (stereo not drawn) | 4.84 |
| CC(C)C(NC(=O)Cc1ccccc1)C(=O)N1CCN(c2cccc(Cl)c2)CC1 (stereo not drawn) | -1.28 |
| CC(=O)c1ccc(OC(C)C)c(CSc2nc(O)cc(=O)[nH]2)c1 | 14 |
| COc1ccc(N2C(=O)CC(N(CCc3ccc(OC)c(OC)c3)C(=S)Nc3ccccc3)C2=O)cc1 (stereo not drawn) | -0.158 |
| CC(=O)c1cc2c(cc1NC(=O)c1cc(C)nn1-c1ccccc1)OCO2 | -8.57 |
| COc1cc2c(cc1OC)-c1cc(N3CCCCCC3)nc(=O)n1CC2 | 10.1 |
| CNc1ccc(NC(C)=O)cc1[N+](=O)[O-] | 6.91 |
| Cc1cccnc1 | 11.2 |
| COCCc1nc2ccc(C(=O)NCc3cccc(-n4cccn4)c3)cc2o1 | 17.3 |
| CCOC(=O)[C@@H]1[C@H]2COc3ccc(Br)cc3[C@@H]2N2C(=O)N(c3ccc(F)cc3)C(=O)[C@]12C | 0.688 |
| COc1ccc(S(=O)(=O)N2CCOCC2)cc1NC(=O)COC(=O)C1CC2CCCC(C1)C2=O (stereo not drawn) | -0.752 |
| O=C(OCc1ccccc1F)c1cc([N+](=O)[O-])ccc1N1CCOCC1 | -1.22 |
| CCN(CC)CCO | 8.88 |
| Cc1ccc(S(=O)(=O)O/N=C2/CCCc3occc32)cc1 | 12.8 |
| Cc1ccccc1CCNC(=O)Cn1nc(C)c2c(C)n(-c3ccccc3)nc2c1=O | 5.1 |
| COc1ccc(OCCNC(=O)c2ccccc2OCC(=O)N2CCCCC2)cc1 | 1.21 |

| SMILES | hERG current change (%, negative = inhibition) at 1uM [%] |
| --- | --- |
| CC(=O)c1c(CC(=O)O)[nH]n(-c2nc3ccccc3s2)c1=O | -2.33 |
| CCSc1nnc(NS(=O)(=O)c2ccc(C)cc2)s1 | 11.6 |
| Cn1c(=O)[nH]c(=O)c2c1nc(N/N=C/c1ccncc1)n2Cc1ccc(Cl)cc1 | 13.3 |
| CN(C)S(=O)(=O)c1cc(NC(=O)CNCc2ccccc2)ccc1Cl | 7.42 |
| CCC(C)n1cnc2c(c1=O)c1nc3ccccc3nc1n2-c1ccc2c(c1)OCCO2 (stereo not drawn) | -1.38 |
| CN1C(=O)c2cccc(NC(=O)Cc3ccccc3)c2C1=O | 12.6 |
| CNC(=S)N1CCC(NC(=O)C(Cc2ccc(OC)cc2)NC(C)=O)CC1 (stereo not drawn) | 19.4 |
| O=C(COc1ccccc1)NC1CCCc2ccccc21 (stereo not drawn) | 0.95 |
| COc1cc(C(O)C(=O)O)ccc1O (stereo not drawn) | 7.64 |
| Cc1cc(NC(=O)CSc2nnnn2-c2cc(Cl)ccc2C)no1 | 13 |
| CCOc1ccc(C(C)=O)cc1N1C(=O)C2C3C=CC(O3)C2C1=O (stereo not drawn) | 8.72 |
| CCS(=O)c1scc(-c2ccc(Cl)cc2)c1C#N (stereo not drawn) | -13.3 |
| Cc1ccc2c(c1)c(N=Nc1ccc([N+](=O)[O-])cc1)c(O)n2C | 12 |
| CSc1ncc(Cl)c(C(=O)[O-])n1.[NH3+]CCc1ccccc1 | 0.119 |
| COc1ccc(Cl)cc1NC(=O)CSc1nnc(-c2ccco2)o1 | 7.21 |
| CC(C)n1c(CN2CCN(Cc3ccccc3)CC2)nc2ccccc21 | 6.63 |
| CCCC(=O)NC(Nc1cc(C(F)(F)F)ccc1Cl)C(Cl)(Cl)Cl (stereo not drawn) | 5.79 |
| Cc1cccc2c1-c1sc(C(=O)N3CCCCC3)cc1CO2 | -3.32 |
| N#CC1=C2Nc3ccccc3N2C(=O)NC1(c1ccccc1)C(F)(F)F (stereo not drawn) | 10.9 |
| CS(=O)(=O)N(CC(=O)NCCSCc1ccco1)c1ccc(Cl)cc1 | 9.33 |
| CN(C)C(CNC(=O)c1oc2ccccc2c1CSc1ncn[nH]1)c1ccco1 (stereo not drawn) | 7.13 |
| CN1C2c3ccccc3C3C4c5ccccc5C(C31)C(C2[N+](=O)[O-])N4C (stereo not drawn) | 11.8 |
| COC(=O)c1cccc(NC(=O)c2onc3c2CCCC3)c1 | -2.85 |

| SMILES | hERG current change (%, negative = inhibition) at 1uM [%] |
| --- | --- |
| CC(=O)NC(C)c1ccc(Cl)c(Cl)c1 (stereo not drawn) | 12.6 |
| CC(NC(=O)CCC(=O)Nc1ccccc1O)c1ccccc1 (stereo not drawn) | 12.4 |
| Cc1ccc(S(=O)(=O)NCC(c2cccnc2)N2CCN(Cc3ccccc3)CC2)cc1 (stereo not drawn) | -39.6 |
| CC1CCCCC12NC(=O)N(CC(=O)Nc1cccc(S(=O)(=O)N3CCCCC3)c1)C2=O (stereo not drawn) | 3 |
| CN(CC(=O)Nc1ccccc1Cl)C(=O)COC(=O)/C=C/c1ccc(C(F)(F)F)cc1 | 16.2 |
| Cc1ccc(NC(=O)C2(c3ccc([N+](=O)[O-])cc3)CCCC2)cc1 | -10.9 |
| Cc1ccccc1N1CCN(C(=O)C2CCC(=O)N(C3CCCC3)C2)CC1 (stereo not drawn) | 9.85 |
| CCCn1c(SCC(=O)NCCc2ccc(OC)c(OC)c2)nc2c1c(=O)n(C)c(=O)n2C | 5.56 |
| CCSc1nnc(NC(=O)C2CCCCC2C(=O)OCC(F)(F)C(F)F)s1 (stereo not drawn) | 8.82 |
| COCCOC(=O)C1=C(C)NC(=O)NC1c1cccc2ccccc12 (stereo not drawn) | 15.4 |
| COc1ccc(-c2n[nH]c(=S)n2-c2ccccc2C)cc1 | 15.3 |
| CCCc1cc(=O)[nH]c(SCC(=O)NCCC2=CCCCC2)n1 | 7.16 |
| CC(C)=CC1C(C(=O)NCCc2ccccc2)C1(C)C (stereo not drawn) | -3.43 |
| Cc1cccc(NC(=O)Cn2cc(C=O)c3ccccc32)c1 | 15.7 |
| CCOc1ccc(NC(=O)CN(C)C(=O)c2ccc(COc3ccccc3)o2)cc1OCC | 1.43 |
| COc1cccc(CC2(CO)CCCN(Cc3ccc(OC)c(C)c3OC)C2)c1 (stereo not drawn) | -80.2 |
| CCn1c(Cc2cccs2)nnc1SCC(=O)c1ccc(C)cc1 | 5.59 |
| Cc1oc(-c2cccc(Br)c2)[n+]([O-])c1C | 7.02 |
| COc1ccc(Cl)cc1-c1nc(-c2ccc(NC(=O)c3cccs3)cc2)no1 | 8.41 |
| O=C(Nc1cnn(Cc2c(Cl)cccc2Cl)c1)c1ccc([N+](=O)[O-])cc1 | 4.46 |
| CCOc1ccc(NS(=O)(=O)c2ccc(C(=O)N(C)CCc3ccc(OC)c(OC)c3)cc2)cc1 | 6.82 |
